Measurements reported in PubChem BioAssay AID2147 (National Center for Advancing Translational Sciences (NCATS), 2009).
Out of some 230,000 compounds screened, about 3,600 (1.6%) were called active. The inconclusive results got no clear call from the source; some entries with a clear call stand among them for comparison. Calls follow the shape of the dose curve; as a rule, active = well fitted inhibition curve with a large enough effect (not every such curve was filed as active); inconclusive = small, poorly fitted or top-dose-only effect, or another doubt; inactive = no such curve, though single readings can be large or run the other way. A potency beside an inconclusive call is a rough fit, not a confirmed value.

biological target: Lysine-specific demethylase 4E (Homo sapiens) (UniProt B2RXH2); experiment: qHTS Assay for Inhibitors of Human Jumonji Domain Containing 2E (JMJD2E); details: JMJD2E catalytic domain, FDH-coupled NADH fluorescence (FDH is formaldehyde dehydrogenase); series mostly up to 57.1 µM; activity change, negative = inhibition: at the top concentration
Sequence of UniProt B2RXH2 (B2RXH2 whole entry, looked up, the tested form may be a part): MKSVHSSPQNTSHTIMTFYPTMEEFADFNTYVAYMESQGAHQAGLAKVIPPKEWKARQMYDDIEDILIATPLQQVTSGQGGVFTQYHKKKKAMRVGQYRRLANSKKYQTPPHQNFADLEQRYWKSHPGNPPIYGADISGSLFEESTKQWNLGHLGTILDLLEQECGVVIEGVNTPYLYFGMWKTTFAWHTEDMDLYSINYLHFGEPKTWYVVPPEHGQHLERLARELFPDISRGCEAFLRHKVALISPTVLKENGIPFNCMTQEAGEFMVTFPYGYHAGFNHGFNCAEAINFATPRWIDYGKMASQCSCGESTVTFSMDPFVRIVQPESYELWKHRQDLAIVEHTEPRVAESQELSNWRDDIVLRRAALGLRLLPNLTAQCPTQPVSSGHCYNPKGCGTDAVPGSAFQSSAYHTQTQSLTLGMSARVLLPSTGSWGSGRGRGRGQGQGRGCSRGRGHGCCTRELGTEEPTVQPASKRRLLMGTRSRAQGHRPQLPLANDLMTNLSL
Also: nearly all actives have a fitted effect of over 50% in size.
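For activity change, negative = inhibition in this document: 0% = wells with enzyme and -100% = buffer wells without enzyme.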
Potency is read from the fitted curve at half-maximal effect; tags tell the direction and shape of the fitted curve.

SMILES	activity change, negative = inhibition	Potency
CN1CCN(C(=O)c2cc(C(C)(C)C)cc(C(C)(C)C)c2)CC1	inactive: 3.83%	–
COc1ccc(-c2nnc(NC(=O)CSc3ccccc3)s2)cc1OC	–	inconclusive: 8.91 µM [inhibitor, partial curve]
CCOC(=O)C1CCN(Cc2ccc(N(C)C)cc2)CC1	–	inconclusive: 28.2 µM [inhibitor, single point]
COc1ccccc1NC(=O)NS(=O)(=O)c1ccc(C)cc1	inactive: 10%	–
Fc1ccc2[nH]c3c(NCCN4CCOCC4)ncnc3c2c1	–	inconclusive: 35.5 µM [inhibitor, single point]
COc1ccc(C(=O)CSc2n[nH]c(C)n2)cc1[N+](=O)[O-]	inactive: 4.21%	–
O=C(Nc1ccccc1)N1CCCC2CCCCC21 (stereo unspecified)	inactive: -6.78%	–
Cc1ccc(Nc2nc(-c3c(C)nc4ccccn34)cs2)cc1	–	inconclusive: 35.5 µM [inhibitor, partial curve]
Cc1ccc(Nc2nc(N)nc(CSc3nnnn3-c3ccccc3)n2)cc1	inactive: 5.01%	–
O=C(N/N=C/c1ccc(Br)s1)c1ccco1	inactive: -7.06%	–
Cn1c(-c2ccc(F)cc2)cnc1NCc1ccc(C#N)cc1	–	inconclusive: 31.6 µM [inhibitor, single point]
CCOc1cc(C2NC(=O)NC(c3ccccc3)=C2C(C)=O)ccc1OC(C)=O (stereo unspecified)	inactive: 6.38%	–
COc1ccccc1-n1c(SCC(=O)N2CCCC2)nc2cccnc21	inactive: -7.74%	–
CN(C)c1cc[n+](CC(=O)Nc2ccc(OC(F)F)cc2)cc1	inactive: -3.02%	–
COc1cc2oc(-c3ccccc3)cc(=O)c2cc1O	–	inconclusive: 14.1 µM [inhibitor, partial curve]
CCCCNC(=O)c1nc2ncc(Br)cn2n1	–	inconclusive: 39.8 µM [inhibitor, single point]
C/C(=N\NC(=O)c1cccnc1)c1nnn(-c2nonc2N)c1C	inactive: 0.927%	–
COc1ccccc1NC(=O)Cn1nc(Cc2cccnc2)c2ccccc2c1=O	inactive: 2.71%	–
CCc1cc2c3c(c(=O)oc2cc1OC)CCCC3	–	inconclusive: 35.5 µM [inhibitor, partial curve]
CCOCC(=O)Nc1cc(-c2cn3cccnc3n2)ccc1C	–	inconclusive: 25.1 µM [inhibitor, partial curve]
CC(=O)n1cc(/C=N/NC(=O)c2sc(C)nc2C)c2ccccc21	–	inconclusive: 35.5 µM [inhibitor, single point]
COC(=O)/C=c1/s/c(=C(/C#N)C(=O)N2CCCCC2)n(-c2ccccc2)c1=O	inactive: -10.3%	–
Cc1ccc(S(=O)(=O)N2CCCCC2)cc1NC(=O)COC(=O)c1ccccc1F	inactive: 12.3%	–
CCOC(=O)N1CCC(NC(=S)Nc2ccc3nc(N4CCN(C)CC4)cc(C)c3c2)CC1	–	inconclusive: 14.1 µM [inhibitor, partial curve]
CCc1c(C(C)S(=O)(=O)c2ccccc2)[nH]c(=O)n1CC (stereo unspecified)	–	inconclusive: 39.8 µM [inhibitor, single point]
CC(=O)c1c(N=CN(C)C)nc(C)nc1-c1ccccc1	inactive: 0.914%	–

SMILES	activity change, negative = inhibition	Potency
COc1ccc(-c2nn(CC(=O)Nc3ccc(Cl)c(Cl)c3)c(=O)c3ccccc23)cc1	–	inconclusive: 25.1 µM [inhibitor, single point]
COc1ccccc1CNC(=O)CSc1ccc(-c2ccncc2)nn1	inactive: 5.96%	–
Brc1ccc(-n2cc(-c3ccccc3)c3c(NN4CCOCC4)ncnc32)cc1	inactive: -11.5%	–
COc1ccc(-c2cc(C(=O)N3CCCc4ccccc43)no2)cc1	inactive: 2.44%	–
Cc1ccc(S(=O)(=O)N2CCN(c3nc(C)c4c(c3C#N)CC(C)(C)OC4)CC2)cc1	–	inconclusive: 28.2 µM [inhibitor, partial curve]
COc1ccc(Cl)cc1S(=O)(=O)N1CCCC1	–	inconclusive: 35.5 µM [inhibitor, single point]
CCCc1ccc(-c2ccc(/C=C/C(=O)O)cc2)nc1	–	inconclusive: 25.1 µM [inhibitor, partial curve]
Cc1cc(-c2cc(C(=O)NCc3ccccc3)on2)nc(NCC2CC2)n1	–	inconclusive: 39.8 µM [inhibitor, single point]
CCOc1ccc(C(=O)NCC2CCCO2)cc1OCC (stereo unspecified)	–	inconclusive: 3.55 µM [inhibitor, single point]
CCCCC(=O)NC(=S)Nc1cc([N+](=O)[O-])ccc1OC	inactive: -3.61%	–
Cc1ccc(CNc2ccc3c(c2)ncn3C)cc1	–	inconclusive: 31.6 µM [inhibitor, partial curve]
Cc1ccc(CSc2nc3c(c(=O)[nH]2)CCC3)cc1	inactive: 3.56%	–
COc1cccc(CN2CCN(Cc3ccc(OC)c(OC)c3)CC2CCO)c1 (stereo unspecified)	inactive: 0.925%	–
COc1cc2cc(CN(CCc3ccccc3C)C(=S)NCCCN(C)C)c(=O)[nH]c2cc1OC	–	inconclusive: 28.2 µM [inhibitor, partial curve]
CN1C(CC(=O)Nc2ccc(Cl)cc2Cl)c2ccccc2CC1(C)C (stereo unspecified)	–	inconclusive: 25.1 µM [inhibitor, single point]
CCOC(=O)c1c(-c2cccs2)csc1NC(=O)CSc1ncn[nH]1	inactive: -15.1%	–
CCOC(=O)c1ccc(N=Cc2nc(-c3ccccc3)oc2OC(C)=O)cc1	inactive: 7.56%	–
Cc1ccc2cccc(OCc3nnc(SCC(=O)O)n3C)c2n1	–	inconclusive: 31.6 µM [inhibitor, single point]
COc1cc(CSc2nnnn2-c2ccc(C)cc2)cc(OC)c1OC	inactive: -1.86%	–
CCSCc1nc2ccccn2c1Br	–	inconclusive: 39.8 µM [inhibitor, single point]
CC(=O)NCCc1cc2ccc(C)cc2[nH]c1=O	–	inconclusive: 31.6 µM [inhibitor, single point]
CCOCCCNCc1cn(-c2ccc(F)cc2F)nc1-c1ccccc1C	inactive: -2.71%	–
CCOc1cc(/C=N/n2cnnc2)ccc1OCC(=O)Nc1ccccc1OC	inactive: -0.663%	–
Cc1cc(C(=O)OCC(=O)Nc2cccnc2Cl)c2ccccc2n1	–	inconclusive: 39.8 µM [inhibitor, single point]
N#C/C(=C/c1ccc(O)c([N+](=O)[O-])c1)C(=O)Nc1ccccc1	inactive: -10.7%	–
CCCCCOC(=O)Nc1ccc(S(=O)(=O)Nn2cnnc2)cc1	inactive: 0.273%	–

SMILES	activity change, negative = inhibition	Potency
CCCCOC(=O)c1ccc(NC(=O)c2cc(Cl)ccc2OC)cc1	–	inconclusive: 31.6 µM [inhibitor, single point]
Cc1nnc(Sc2cc(NCCCO)c([N+](=O)[O-])c3nonc23)s1	inactive: -3.08%	–
O=c1cc(-c2ccccc2Cl)oc2ccc([N+](=O)[O-])c(O)c12	–	inconclusive: 39.8 µM [inhibitor, single point]
COc1ccc(/C=N/NC(=O)c2cc(C)n(-c3ccccc3)c2C)cc1OC	–	inconclusive: 31.6 µM [inhibitor, single point]
Nc1ccc2oc(-c3cccc(Br)c3)nc2c1	–	inconclusive: 39.8 µM [inhibitor, single point]
O=S(=O)(Nc1ccc(-c2nc3cccnc3s2)cc1)c1ccc(Cl)s1	–	inconclusive: 25.1 µM [inhibitor, partial curve]
Cc1ncsc1CCC(=O)N1CCCC(C(=O)c2ccc3c(c2)OCO3)C1 (stereo unspecified)	–	inconclusive: 39.8 µM [inhibitor, single point]
Cc1nn(Cc2ccccc2)c(Cl)c1/C=C1\NC(=S)NC1=O	–	inconclusive: 39.8 µM [inhibitor, single point]
CN(C)CCCNC(=S)NCCNc1nc2cc3c(cc2cc1C#N)OCO3	–	inconclusive: 31.6 µM [inhibitor, partial curve]
Cn1c(SCC(=O)NC2CCCC2)nnc1-c1ccc(S(=O)(=O)N2CCOCC2)cc1	–	inconclusive: 28.2 µM [inhibitor, single point]
O=C1Nc2ccccc2C1Cc1ccccc1 (stereo unspecified)	inactive: -3.3%	–
O=C(c1ccoc1)N1CCC2(CC1)Oc1ccc(F)cc1C(=O)C21CC(c2cccnc2)=NO1 (stereo unspecified)	–	inconclusive: 39.8 µM [inhibitor, single point]
Cc1onc(-c2ccccc2Cl)c1C(=O)NC(=S)Nc1ccccc1C(N)=O	–	inconclusive: 28.2 µM [inhibitor, partial curve]
COc1ccc(NC(=O)c2cc(CC(C)C)on2)cc1OC	–	inconclusive: 5.01 µM [inhibitor, single point]
COc1ccccc1/C=C/C(=O)NCCC1=CCCCC1	–	inconclusive: 8.91 µM [inhibitor, full curve]
COc1ccc(O)c(C(=O)c2cnn(C(=O)c3cc(C)oc3C)c2)c1	inactive: 26%	–
COCCCNC(=O)Cn1nnc(-c2ccc(NC(=O)c3ccc(F)cc3)cc2)n1	–	inconclusive: 20 µM [inhibitor, single point]
Cc1ccn2c(Nc3ccccc3C)c(-c3cccnc3)nc2c1	–	inconclusive: 31.6 µM [inhibitor, single point]
COc1ccc2cc(C(=O)C3CCCN(C(=O)CSc4nnc(C)o4)C3)ccc2c1 (stereo unspecified)	–	inconclusive: 28.2 µM [inhibitor, partial curve]
O=C1c2cccc3cccc(c23)C(=O)N1CCc1ccccc1	–	inconclusive: 31.6 µM [inhibitor, partial curve]
Oc1cc(NCc2cccnc2)ccc1-c1nc2ccccc2o1	–	inconclusive: 28.2 µM [inhibitor, partial curve]
CCN(CC)CCNS(=O)(=O)c1ccc2[nH]cc(C(=O)O)c(=O)c2c1	–	inconclusive: 31.6 µM [inhibitor, single point]
O=C(c1nn2c(C(F)(F)F)cc(-c3cccs3)nc2c1Cl)N1CCCc2ccccc21	–	inconclusive: 39.8 µM [inhibitor, single point]
O=C(CSc1ccc2nnc(-c3cccc(F)c3)n2n1)NCC1CCCO1 (stereo unspecified)	–	inconclusive: 25.1 µM [inhibitor, partial curve]
